# Data from the supplement of paper PMC8728848.
# The list shows a part of the results.
# B1: RBMC1 (Vibrio cholerae) (protein)
# chain: QQSQRVVTADNLMYLRSGFAIDAIGTTVNNLVGGPVQGTNGGVLRAPIALDQLQSVEVTSGLYNWGGYHIVAIKFTMKDGSSVLLGSTHYASNKKVETYTVPQGKRIKQINVWTGGWLVEGFQFVY
# Assays:
# Assay in all cases: glycan array binding signal (z-score within array); higher = stronger binding
# Details in all cases: glycan notation: IUPAC condensed, linker removed
# [1] = target: GlcNAc(b1-4)GlcNAc(b1-4)GlcNAc(b1-4)GlcNAc(b1-4)GlcNAc(b1-4)GlcNAc
# In short: (§1)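 The binding signal is a Z-score computed within each array and averaged over linkers. Arrays of the same protein sequence at different concentrations or buffers were also averaged together. Data originate from 3228 arrays in the Consortium for Functional Glycomics database, kept only where the protein sequence was available.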
# [2] = target: GlcNAc(b1-4)[GlcNAc(b1-6)]GalNAc
# In short: as §1
# [3] = target: GlcNAc(b1-6)Gal(b1-4)GlcNAc
# In short: as §1
# GlcNAc(b1-6)GalNAc = target: GlcNAc(b1-6)GalNAc
# In short: as §1
# [4] = target: GlcNAc6S(b1-3)Gal(b1-4)GlcNAc
# In short: as §1
# Kdn(a2-3)Gal(b1-3)GalNAc = target: Kdn(a2-3)Gal(b1-3)GalNAc
# In short: as §1
# Kdn(a2-3)Gal(b1-3)GlcNAc = target: Kdn(a2-3)Gal(b1-3)GlcNAc
# In short: as §1
# Kdn(a2-3)Gal(b1-4)Glc = target: Kdn(a2-3)Gal(b1-4)Glc
# In short: as §1
# Kdn(a2-3)Gal(b1-4)GlcNAc = target: Kdn(a2-3)Gal(b1-4)GlcNAc
# In short: as §1
# [5] = target: Kdn(a2-3)Gal(b1-4)[Fuc(a1-3)]GlcNAc
# In short: as §1
# Kdn(a2-6)Gal(b1-4)GlcNAc = target: Kdn(a2-6)Gal(b1-4)GlcNAc
# In short: as §1
# [6] = target: Man(a1-2)Man(a1-2)Man(a1-3)Man
# In short: as §1
# [7] = target: Man(a1-2)Man(a1-2)Man(a1-6)[Man(a1-3)]Man
# In short: as §1
# Man(a1-2)Man(a1-3)Man = target: Man(a1-2)Man(a1-3)Man
# In short: as §1
# [8] = target: Man(a1-2)Man(a1-3)[Man(a1-2)Man(a1-6)]Man
# In short: as §1
# [9] = target: Man(a1-2)Man(a1-3)[Man(a1-2)Man(a1-6)]Man(a1-6)[Man(a1-2)Man(a1-2)Man(a1-3)]Man
# In short: as §1
# [10] = target: Man(a1-2)Man(a1-3)[Man(a1-2)Man(a1-6)]Man(a1-6)[Man(a1-2)Man(a1-2)Man(a1-3)]Man(b1-4)GlcNAc(b1-4)GlcNAc
# In short: as §1
# [11] = target: Man(a1-2)Man(a1-3)[Man(a1-6)]Man(a1-6)[Man(a1-2)Man(a1-3)]Man(b1-4)GlcNAc(b1-4)GlcNAc
# In short: as §1
# [12] = target: Man(a1-2)Man(a1-6)[Man(a1-3)]Man(a1-6)[Man(a1-2)Man(a1-2)Man(a1-3)]Man
# In short: as §1
# [13] = target: Man(a1-2)Man(a1-6)[Man(a1-3)]Man(a1-6)[Man(a1-2)Man(a1-2)Man(a1-3)]Man(b1-4)GlcNAc(b1-4)GlcNAc
# In short: as §1
# Man(a1-3)[Man(a1-6)]Man = target: Man(a1-3)[Man(a1-6)]Man
# In short: as §1
# [14] = target: Man(a1-3)[Man(a1-6)]Man(a1-6)[Man(a1-2)Man(a1-3)]Man(b1-4)GlcNAc(b1-4)GlcNAc
# In short: as §1
# [15] = target: Man(a1-3)[Man(a1-6)]Man(a1-6)[Man(a1-3)]Man
# In short: as §1
# [16] = target: Man(a1-3)[Man(a1-6)]Man(a1-6)[Man(a1-3)]Man(b1-4)GlcNAc(b1-4)GlcNAc
# In short: as §1
# [17] = target: Man(a1-3)[Man(a1-6)]Man(b1-4)GlcNAc(b1-4)GlcNAc
# In short: as §1
# [18] = target: Man(a1-3)[Man(a1-6)]Man(b1-4)GlcNAc(b1-4)[Fuc(a1-6)]GlcNAc
# In short: as §1
# Man(a1-6)Man = target: Man(a1-6)Man
# In short: as §1
# Man(b1-4)GlcNAc = target: Man(b1-4)GlcNAc
# In short: as §1
# MurNAc(b1-4)GlcNAc = target: MurNAc(b1-4)GlcNAc
# In short: as §1
# Neu5Ac(a2-3)Gal = target: Neu5Ac(a2-3)Gal
# In short: as §1
# [19] = target: Neu5Ac(a2-3)Gal(b1-3)GalNAc
# In short: as §1
# [20] = target: Neu5Ac(a2-3)Gal(b1-3)GalNAc(b1-3)Gal(a1-4)Gal(b1-4)Glc
# In short: as §1
# [21] = target: Neu5Ac(a2-3)Gal(b1-3)GalNAc(b1-4)Gal(b1-4)Glc
# In short: as §1
# [22] = target: Neu5Ac(a2-3)Gal(b1-3)GalNAc(b1-4)[Neu5Ac(a2-3)]Gal(b1-4)Glc
# In short: as §1
# [23] = target: Neu5Ac(a2-3)Gal(b1-3)GalNAc(b1-4)[Neu5Ac(a2-8)Neu5Ac(a2-3)]Gal(b1-4)Glc
# In short: as §1
# [24] = target: Neu5Ac(a2-3)Gal(b1-3)GalNAc6S
# In short: as §1
# [25] = target: Neu5Ac(a2-3)Gal(b1-3)GlcNAc
# In short: as §1
# [26] = target: Neu5Ac(a2-3)Gal(b1-3)GlcNAc(b1-2)Man
# In short: as §1
# [27] = target: Neu5Ac(a2-3)Gal(b1-3)GlcNAc(b1-2)Man(a1-3)[GlcNAc(b1-4)][Neu5Ac(a2-3)Gal(b1-3)GlcNAc(b1-2)Man(a1-6)]Man(b1-4)GlcNAc(b1-4)GlcNAc
# In short: as §1
# [28] = target: Neu5Ac(a2-3)Gal(b1-3)GlcNAc(b1-2)Man(a1-3)[Neu5Ac(a2-3)Gal(b1-3)GlcNAc(b1-2)Man(a1-6)]Man(b1-4)GlcNAc(b1-4)GlcNAc
# In short: as §1
# [29] = target: Neu5Ac(a2-3)Gal(b1-3)GlcNAc(b1-2)[Neu5Ac(a2-3)Gal(b1-3)GlcNAc(b1-4)]Man(a1-6)[Neu5Ac(a2-3)Gal(b1-3)GlcNAc(b1-2)Man(a1-3)]Man(b1-4)GlcNAc(b1-4)GlcNAc
# In short: as §1
# [30] = target: Neu5Ac(a2-3)Gal(b1-3)GlcNAc(b1-3)Gal(b1-3)GlcNAc
# In short: as §1
# [31] = target: Neu5Ac(a2-3)Gal(b1-3)GlcNAc(b1-3)Gal(b1-4)GlcNAc
# In short: as §1
# [32] = target: Neu5Ac(a2-3)Gal(b1-3)GlcNAc(b1-3)GalNAc
# In short: as §1
# [33] = target: Neu5Ac(a2-3)Gal(b1-3)GlcNAc(b1-6)GalNAc
# In short: as §1
binder,measurement,setting,value
B1,glycan array binding signal (z-score),[1],-0.23
same,glycan array binding signal (z-score),[2],-0.352
same,glycan array binding signal (z-score),[3],-0.24
same,glycan array binding signal (z-score),GlcNAc(b1-6)GalNAc,-0.289
same,glycan array binding signal (z-score),[4],-0.267
same,glycan array binding signal (z-score),Kdn(a2-3)Gal(b1-3)GalNAc,0.471
same,glycan array binding signal (z-score),Kdn(a2-3)Gal(b1-3)GlcNAc,-0.41
same,glycan array binding signal (z-score),Kdn(a2-3)Gal(b1-4)Glc,-0.049
same,glycan array binding signal (z-score),Kdn(a2-3)Gal(b1-4)GlcNAc,-0.182
same,glycan array binding signal (z-score),[5],-0.015
same,glycan array binding signal (z-score),Kdn(a2-6)Gal(b1-4)GlcNAc,0.007
same,glycan array binding signal (z-score),[6],-0.395
same,glycan array binding signal (z-score),[7],-0.207
same,glycan array binding signal (z-score),Man(a1-2)Man(a1-3)Man,-0.424
same,glycan array binding signal (z-score),[8],-0.411
same,glycan array binding signal (z-score),[9],-0.329
same,glycan array binding signal (z-score),[10],-0.335
same,glycan array binding signal (z-score),[11],-0.383
same,glycan array binding signal (z-score),[12],-0.325
same,glycan array binding signal (z-score),[13],-0.308
same,glycan array binding signal (z-score),Man(a1-3)[Man(a1-6)]Man,0.002
same,glycan array binding signal (z-score),[14],0.166
same,glycan array binding signal (z-score),[15],-0.027
same,glycan array binding signal (z-score),[16],-0.037
same,glycan array binding signal (z-score),[17],1.13
same,glycan array binding signal (z-score),[18],0.327
same,glycan array binding signal (z-score),Man(a1-6)Man,1.1
same,glycan array binding signal (z-score),Man(b1-4)GlcNAc,-0.259
same,glycan array binding signal (z-score),MurNAc(b1-4)GlcNAc,-0.416
same,glycan array binding signal (z-score),Neu5Ac(a2-3)Gal,-0.404
same,glycan array binding signal (z-score),[19],-0.226
same,glycan array binding signal (z-score),[20],-0.296
same,glycan array binding signal (z-score),[21],-0.295
same,glycan array binding signal (z-score),[22],-0.079
same,glycan array binding signal (z-score),[23],-0.235
same,glycan array binding signal (z-score),[24],-0.271
same,glycan array binding signal (z-score),[25],-0.272
same,glycan array binding signal (z-score),[26],-0.105
same,glycan array binding signal (z-score),[27],-0.414
same,glycan array binding signal (z-score),[28],0.369
same,glycan array binding signal (z-score),[29],-0.307
same,glycan array binding signal (z-score),[30],-0.32
same,glycan array binding signal (z-score),[31],-0.375
same,glycan array binding signal (z-score),[32],-0.314
same,glycan array binding signal (z-score),[33],-0.213
